# Several values for one entry are separate records, joined by “and”; a condition that tells them apart may be missing. Equal entries are not always repeated. Screen size: about 110,000 compounds; about 230 (0.21%) showed an effect of 50% or more. The list shows a part of the results.
# Target: DPAP1 (Plasmodium falciparum, UniProt Q8IIJ9)
# Experiment: primary screen, percent inhibition; read by cleavage of a fluorogenic dipeptide substrate; higher = more effect of the substance
# Set-up: species or system P. falciparum D10 trophozoite lysates; single well
# 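Also: 30 min substrate incubation versus DMSO and 10 µM JCP410 controls.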
# Chain of DPAP1 (Q8IIJ9 whole entry, looked up): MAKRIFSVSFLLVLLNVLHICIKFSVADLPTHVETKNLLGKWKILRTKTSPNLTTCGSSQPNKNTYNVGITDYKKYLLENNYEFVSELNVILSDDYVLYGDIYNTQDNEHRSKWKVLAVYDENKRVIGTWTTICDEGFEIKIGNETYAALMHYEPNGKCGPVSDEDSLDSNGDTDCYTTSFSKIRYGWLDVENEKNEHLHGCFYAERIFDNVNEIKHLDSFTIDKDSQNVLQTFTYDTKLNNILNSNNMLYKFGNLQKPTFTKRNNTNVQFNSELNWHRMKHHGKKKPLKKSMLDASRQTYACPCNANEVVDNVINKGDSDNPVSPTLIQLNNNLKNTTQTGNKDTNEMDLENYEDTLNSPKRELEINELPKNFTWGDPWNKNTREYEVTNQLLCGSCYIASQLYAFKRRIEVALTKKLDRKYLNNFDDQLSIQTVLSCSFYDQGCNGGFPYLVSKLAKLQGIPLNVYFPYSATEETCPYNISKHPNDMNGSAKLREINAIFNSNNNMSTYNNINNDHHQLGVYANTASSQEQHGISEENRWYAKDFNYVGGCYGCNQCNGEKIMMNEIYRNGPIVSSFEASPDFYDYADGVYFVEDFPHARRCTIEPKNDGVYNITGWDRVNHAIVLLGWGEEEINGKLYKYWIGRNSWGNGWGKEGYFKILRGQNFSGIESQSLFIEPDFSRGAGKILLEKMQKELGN
row,Compound,% Inhibition @ 10 uM
1,Cc1cc(C)n(C(=O)COc2ccc(C)c(C)c2)n1,-8.79%
2,Oc1nc2ccc(C(F)(F)F)cc2n2cnnc12,1.49%
3,O=C(ONc1ncnc2nonc12)c1ccccc1,-6.17%
4,COc1cc2c(cc1OC)C(C(=O)Nc1ccccn1)C(c1cccnc1)N(C)C2=O (stereo not drawn),-3.79%
5,Cc1ccccc1OCCCC(=O)Nc1ccc(N2CCOCC2)cc1,2.13%
6,CCOC(=O)c1cc(CC)sc1NC(=O)COc1ccc(Cl)cc1Cl,-0.48%
7,CC(=O)N(Cc1ccccc1)c1c(N)nc(N)nc1O,2.06%
8,CCOC(=O)N1CCN(C(=O)c2cnn(-c3ccccc3)c2-n2cccc2)CC1,6.46%
9,CCOc1ccc2nc(NC(=O)CCNS(=O)(=O)c3cccc4nonc34)sc2c1,2.84%
10,CCCNC(=O)c1cccc(COCC(F)(F)C(F)F)c1,-1.02%
11,Cc1nc2c(c(C)nn2C)c(C)c1CCC(=O)NCCc1ccc(Cl)cc1,-4.24%
12,CC(C)C[C@H](NC(=O)c1ccc(N2CCN(C)CC2)cc1)C(=O)NCCN1CCOCC1,3.19%
13,COc1ccc(NC(C)=O)c2nc(C)c(C)nc12,1.13%
14,Cc1ccccc1-c1cc(C(=O)NC(C)C)c2ccccc2n1,0.408%
15,O=S(=O)(Nc1cccc(C(F)(F)F)c1)c1cc(Cl)ccc1Cl,-2.6%
16,CCOC(=O)c1c(C)[nH]c(C)c1S(=O)(=O)NCC(=O)N1CCCCCC1,-7.86%
17,CC1CCCCN1CCNC(=O)c1cc(-c2ccncc2)nc2ccccc12 (stereo not drawn),-4.29%
18,O=C(Nc1cc([N+](=O)[O-])ccc1F)c1ccccc1,-1.75%
19,CN(C)c1ccc(C(C2=C(O)N3CCSC3NC2=O)C2=C(O)N3CCSC3NC2=O)cc1 (stereo not drawn),5.04%
20,OC1(c2ccccc2)CC2CCC(C1)N2c1ncccn1 (stereo not drawn),1.85%
21,O=C(O)CCC(=O)Nc1ccc(S(=O)(=O)N2CCCCC2)cc1,-1.49%
22,Cn1c(/C=C/c2ccc(Cl)cc2)nc2ccccc21,-9.13%
23,COc1ccc(C2C(C#N)=C(N)Oc3cc(N)ccc32)cc1Br (stereo not drawn),4.57%
24,COc1cccc(OC)c1C(=O)Nc1ccccc1F,-3.44%
25,CCN(CCN(C)C)C(C)CCc1ccccc1 (stereo not drawn),3.68%
26,COc1cc(-c2cc(=O)oc(-c3ccc(Cl)cc3Cl)n2)cc(OC)c1OC,0.484%

row,Compound,% Inhibition @ 10 uM
1,N#C/C(=C\c1ccc(-c2cccc([N+](=O)[O-])c2)o1)C(=O)Nc1ccc(Cl)cc1,-5.11%
2,COc1ccc(C(=O)c2cnc3ccccc3c2S(=O)(=O)c2ccccc2)cc1,-1.04%
3,Cn1c(=O)c2nc(-c3ccccn3)c(-c3ccccn3)nc2n(C)c1=O,-6.83%
4,Cc1ccc(C(=O)C2=C(O)C(=O)N(c3nc4ccccc4s3)C2c2ccc(O)cc2)cc1 (stereo not drawn),-6.69%
5,Cc1nnc(N2CCCC(C(=O)NCc3ccc4c(c3)OCO4)C2)c2nn(-c3ccccc3)c(C)c12 (stereo not drawn),11.4%
6,CC(O)CN1CCN(C(=O)c2ccccc2S(N)(=O)=O)CC1 (stereo not drawn),2.65%
7,CN(Cc1ccccc1)S(=O)(=O)c1nnc(NC(=O)C(C)(C)C)s1,3.36%
8,Cc1sc(NC(=O)COc2ccc(F)cc2F)c(C#N)c1C,93.9%
9,CCCC(=O)N1CCN(c2ccc(C(C)=O)cc2F)CC1,-0.185%
10,CC12CN(Cc3cccc(Br)c3)CC(C)(CN(C(=S)Nc3ccccc3)C1)C2,2.51%
11,N#Cc1c(N)c(C(=O)c2ccc(Br)cc2)n2ccccc12,4.54%
12,COc1ccc(/C=C2\Cc3ccccc3C2=O)c(OC)c1,-1.31%
13,Brc1ccc(-c2nnc(SCCC3OCCCO3)o2)cc1,-0.053%
14,O=C(CN1CCCC1=O)NCCc1ccccc1,4.88%
15,C=CCN(CC=C)C(=O)c1ccc(OCC)cc1,-1.04%
16,CCc1nn(CC(=O)NCc2cc(Br)ccc2OC)c(=O)c2cc3sc(C)cc3n12,-1.7%
17,COc1ccc(NC(=O)Nc2cccc(F)c2)cc1,1.35%
18,COc1ccc(S(=O)(=O)N2CCC(C(=O)NCCCO)CC2)cc1OC,-0.169%
19,Cc1cc(N2CCC(O)CC2)nc2ccccc12,-8.19%
20,CCCCC(/C=C/S(=O)(=O)c1ccccc1)NC(=O)C(Cc1ccccc1)NC(=O)N1CCC(N2CCCCC2)CC1 (stereo not drawn),3.19%
21,COc1ccc(C(=O)CSc2nc3cc(OC)ccc3[nH]2)cc1,4.55%
22,O=C(CSc1ccc(Br)cc1)N1CCCCC1,-2.24%
23,Cc1ccc(C(=O)N2CCN(C(=O)c3ccc(C)cc3)CC2)cc1,4.26%
24,O=C1CC(c2ccccc2Cl)c2ccc3ccccc3c2N1 (stereo not drawn),4.98%
25,O=S(=O)(c1ccc(Cl)c(Cl)c1)N1CCOCC1,-7.5%
26,CCc1ccc(C(=O)CCN(C)C)cc1,2.76%

row,Compound,% Inhibition @ 10 uM
1,CC1(C)CC(O)=C/C(=N/CCCn2ccnc2)C1,4.07% and -0.687%
2,COc1cc2ncc(C(=O)c3ccccc3)c(S(=O)(=O)c3ccc(F)cc3)c2cc1OC,-4.2%
3,C=CCn1c(=O)c2c(nc3n2CCCN3c2ccccc2)n(C)c1=O,5.92%
4,CCNC(=S)NCCc1c(C)[nH]c2ccc(OC)cc12,-3.94%
5,COc1cc(NC(=O)Nc2ccccc2)c(OC)cc1Cl,-1.07%
6,COc1ccc(CN2CC3(C)CC2CC(C)(C)C3)c(OC)c1C (stereo not drawn),-2.95%
7,COc1ccc(NC(=O)c2ccc(Oc3ccccc3)cc2)cc1,-0.318%
8,O=C(Nc1ccc(S(=O)(=O)N2CCCCC2)cc1)c1cccs1,-2.56%
9,O=C(NCC12CC3CC(C1)CC(CNC(=O)c1cccs1)(C3)C2)c1cccs1,-0.28%
10,COc1ccc(N2C(=O)c3ccccc3NC2c2ccc3c(c2)OCO3)cc1 (stereo not drawn),-0.173%
11,COc1cc(CNC(C)(C)CO)cc(Cl)c1OCc1ccccc1,2.76%
12,COc1ccc(/C=C/C(=O)/C=C/c2ccccc2)cc1,3.48%
13,Cc1cc(C)c2ccc3c(C)c(C)[nH]c3c2n1,-2.19%
14,CCOC(=O)N1CCC(NC(=O)c2ccc3c(c2)nc(C)n3-c2ccc(OCC)cc2)CC1,11.3%
15,O=C(NCc1ccccn1)Nc1ccc(Cl)cc1,-9.79%
16,COc1cccc(-n2nnc3c(=O)n(Cc4ccc(C(F)(F)F)cc4)cnc32)c1,-3.94%
17,Cc1ccc(S(=O)(=O)CCc2nc(S(=O)(=O)c3ccc(C)cc3)c(N(C)C)o2)cc1,-1.44%
18,COc1cccc(CN(CC2CCCO2)S(=O)(=O)c2ccc(S(=O)(=O)N3CCCC3)cc2)c1 (stereo not drawn),3.66%
19,COC(=O)C1=CN(C)C=C(C(=O)OC)C1c1ccccc1OC,-1.48%
20,CC(=O)N(CCc1ccc(C)[n+]([O-])c1)c1ccccc1,11.4%
21,COc1cccc(N(CC(=O)NC(C)C)S(=O)(=O)c2ccccc2)c1,-3.25%
22,COc1ccccc1CNC(=O)c1nnc(-c2cccnc2)o1,-1.14%
23,CN(C)C(=O)Oc1cc(=O)n2c3c(cccc13)CCC2,-4.31%
24,CC(C)C[C@H](NS(=O)(=O)c1ccc(Br)cc1)C(=O)NCC#N,14.8%
25,CCCSc1nc2c(c(=O)[nH]c(=O)n2C)n1CC(O)COc1ccccc1C (stereo not drawn),3.65%
26,NC(=O)c1ccccc1Nc1ccc(Cl)cc1,4.83%

row,Compound,% Inhibition @ 10 uM
1,O=c1sc2ccccc2n1/C=C/c1ccccc1,1.83%
2,c1ccc2c(c1)OCC(c1csc3ncnc(N4CCCCC4)c13)O2 (stereo not drawn),-1.52%
3,COc1ccc(C(c2c(C)n(C)n(-c3ccccc3)c2=O)c2c(C)n(C)n(-c3ccccc3)c2=O)cc1,-1.25%
4,CCOc1cc(C2C3=C(O)CCCC3=NC3=C2C(=O)CCC3)ccc1OC (stereo not drawn),0.317%
5,CN(Cc1ccccc1)C(=O)CN1Cc2ccccc2C1=O,3.62%
6,COc1cc(CNC(C)(C)CO)cc(Br)c1OCC(N)=O,-2.74%
7,CC1CCCC(NC(=O)Nc2noc3c2COc2ccccc2-3)C1C (stereo not drawn),-3.17%
8,CC1=Nc2ncnn2C(c2cccnc2)/C1=C(\O)OC1CCCCC1 (stereo not drawn),1.68%
9,Cc1nc(CC(=O)Nc2nc(C)c(C)s2)cs1,-4.54%
10,CCOC(=O)C1=C(C)OC(N)=C(C#N)C12C(=O)Nc1ccccc12 (stereo not drawn),-1.97%
11,CCc1ccc(OCC(=O)O/N=C(\N)c2ccccn2)c(Br)c1,-4.84%
12,NC1=NC(=O)/C(=C/c2cn(Cc3ccccc3F)c3ccccc23)S1,2.8%
13,N#Cc1ccccc1NC(=O)c1cccc(F)c1,-1.32%
14,O=C(O)c1ccc(-c2ccc(C(=O)O)s2)s1,5.42%
15,Cc1ccc(S(=O)(=O)N(CC(=O)NCc2ccco2)c2ccc(C)c(Cl)c2)cc1,-2.75%
16,Cn1c(=O)c2c(nc(SCCCC#N)n2Cc2ccccc2F)n(C)c1=O,4.67%
17,COc1ccc(C(=O)Nc2cccc(SC)c2)cc1,4.75%
18,CC1(C)CC(O)=C/C(=N/CC2NCCc3ccccc32)C1 (stereo not drawn),-0.736%
19,N#Cc1c(NC(=O)c2cccc(F)c2)sc2c1CCCC2,3.65%
20,COC(=O)c1c(NC2=NS(=O)(=O)c3ccccc32)sc2c1CCC(C(C)(C)C)C2 (stereo not drawn),-1.11%
21,CCCCCn1c(=O)c(C(=O)Nc2ccccc2)c(O)c2ccccc21,-4.67%
22,CCN(CC)C(=O)Cn1cc(SCC(=O)NCc2ccco2)c2ccccc21,-5.54%
23,Cn1c(=O)c2c(nc(CN3CCN(Cc4ccccc4)CC3)n2CCc2ccccc2)n(C)c1=O,-1.43%
24,Cc1ccc(Oc2cccc(NC(=O)c3ccc([N+](=O)[O-])cc3C(=O)O)c2)cc1C,-12.9%

# Source: paper PMC6919601, “Identification of Plasmodium dipeptidyl aminopeptidase allosteric inhibitors by high throughput screening” (PLoS ONE, 2019)
